Hit rate of the full screen: of about 310,000 compounds, about 14,000 (4.5%) showed an effect of 50% or more. The effect is printed as a negative number. The list shows a part of the results.
Target: human ether-à-go-go-related gene (hERG) potassium channel (human, UniProt Q12809)
Assay: primary screen, population patch clamp on CHO cells stably expressing hERG
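Also: peak tail current of the secondary pulse compared with the same well before compound.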

Chain of human ether-à-go-go-related gene (hERG) potassium channel (Q12809 whole entry, looked up): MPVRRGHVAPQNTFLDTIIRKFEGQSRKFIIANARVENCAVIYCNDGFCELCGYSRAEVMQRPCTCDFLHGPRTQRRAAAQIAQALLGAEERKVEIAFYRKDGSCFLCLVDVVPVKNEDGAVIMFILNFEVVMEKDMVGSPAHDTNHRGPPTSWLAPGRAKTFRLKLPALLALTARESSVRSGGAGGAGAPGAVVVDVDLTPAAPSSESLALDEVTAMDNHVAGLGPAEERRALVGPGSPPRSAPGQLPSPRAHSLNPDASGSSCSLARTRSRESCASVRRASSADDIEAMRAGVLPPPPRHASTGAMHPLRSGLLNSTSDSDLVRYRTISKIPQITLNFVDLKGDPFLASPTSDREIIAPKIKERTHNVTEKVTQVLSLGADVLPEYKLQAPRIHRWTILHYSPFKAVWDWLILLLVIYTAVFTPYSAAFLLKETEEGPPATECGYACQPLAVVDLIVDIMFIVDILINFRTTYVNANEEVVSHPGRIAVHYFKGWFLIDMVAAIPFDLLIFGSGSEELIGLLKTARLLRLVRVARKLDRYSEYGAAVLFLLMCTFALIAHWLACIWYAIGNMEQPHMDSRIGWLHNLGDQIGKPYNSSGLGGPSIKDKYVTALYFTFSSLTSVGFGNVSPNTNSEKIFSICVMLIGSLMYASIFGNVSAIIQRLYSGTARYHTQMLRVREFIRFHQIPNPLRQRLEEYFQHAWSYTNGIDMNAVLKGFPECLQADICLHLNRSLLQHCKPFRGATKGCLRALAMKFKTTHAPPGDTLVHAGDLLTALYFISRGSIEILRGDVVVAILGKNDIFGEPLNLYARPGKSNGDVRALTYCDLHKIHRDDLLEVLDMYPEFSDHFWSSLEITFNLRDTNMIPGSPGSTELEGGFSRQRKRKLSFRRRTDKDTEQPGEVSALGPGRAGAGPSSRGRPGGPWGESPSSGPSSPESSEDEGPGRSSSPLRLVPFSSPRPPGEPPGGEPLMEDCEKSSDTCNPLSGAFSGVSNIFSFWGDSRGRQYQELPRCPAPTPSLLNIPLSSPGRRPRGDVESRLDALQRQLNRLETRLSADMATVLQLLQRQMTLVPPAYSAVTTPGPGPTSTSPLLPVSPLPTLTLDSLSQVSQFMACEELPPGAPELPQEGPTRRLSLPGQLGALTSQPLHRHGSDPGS

Row | SMILES | hERG current change (%, negative = inhibition) at 10uM [%]
1 | Cc1ccc(S(=O)(=O)Nc2nnc(C3CCCCC3)s2)cc1 | 6.36
2 | CC(=O)c1ccc(-n2nnnc2SCC(=O)NC2CCCCC2)cc1 | -17
3 | N#Cc1c(-c2ccc(C(F)(F)F)cc2)cc(-c2ccccc2)[nH]c1=S | -2.91
4 | O=C(N/N=C\c1ccc[nH]1)c1cncc(Br)c1 | 3.82
5 | Cc1ccc(S(=O)(=O)Nc2cc(C)on2)cc1 | 15.4
6 | COc1cc(NC(=O)COC(=O)c2nc3nc(C)cc(C)n3n2)cc(OC)c1 | -19.1
7 | S=C(NCC1CCCO1)N1CCN(c2ccccc2)CC1 (stereo not drawn) | 23.5
8 | O=C(C(O)c1ccccc1)N1N=C(c2ccccc2)CC1(O)C(F)(F)F (stereo not drawn) | 23.6
9 | COc1cc(C(=O)OCC(=O)Nc2cc(C)on2)c([N+](=O)[O-])cc1OC | 2.51
10 | CC(C)COc1ccc(C(=O)Nc2ccc(N3CCOCC3)cc2N2CCOCC2)cc1 | 1.07
11 | O=C(Cn1nnc2ccccc2c1=O)Nc1cccc(S(=O)(=O)N2CCOCC2)c1 | -16.8
12 | O=C(Nc1ccc(Cl)cc1C(=O)Nc1ccc(Br)cn1)c1ccco1 | -12.5
13 | CN=Cc1c(NC)nc2c(C)cccn2c1=O | -15.1
14 | Cc1ccc(C23CC4CC(CC(C(=O)OCC(=O)N(C)C)(C4)C2)C3)cc1 | 10.8
15 | c1cncc(-c2nn3cnnc3s2)c1 | 9.93
16 | CC(=O)Nc1nnc(S(N)(=O)=O)s1 | 15
17 | Cc1occc1C(=O)NCc1ccccc1F | -8
18 | Cc1ccc(C)c(CSC2=NCCN2C(=O)c2cccs2)c1 | 13.5
19 | Cc1ccc(Oc2ccccc2)c(NC=O)c1 | 2.01
20 | Cc1c(N(C)C(=O)c2ccco2)c(=O)n(-c2ccccc2)n1C | 0.317
21 | Cc1noc(/C=C/c2ccco2)c1S(=O)(=O)N1CCC(C(=O)N2CCc3ccccc32)CC1 | 8.13
22 | N#Cc1ccc(NC(=O)COC(=O)CCNS(=O)(=O)c2ccccc2)cc1 | -34.4
23 | O=C(Nc1ccccc1)C1C(c2ccccc2)C1(Cl)Cl (stereo not drawn) | 0.699

Row | SMILES | hERG current change (%, negative = inhibition) at 10uM [%]
24 | COc1ccc(NC(=O)CCC(=O)Nc2cc(OC)c(NC(=O)c3ccco3)cc2OC)c(OC)c1 | 20.4
25 | CCc1ccc(S(=O)(=O)N2CCCC(N3CCN(c4ccc(OC)cc4)CC3)C2)cc1 (stereo not drawn) | -65.4
26 | O=C(Nc1cc(N2CCOCC2)ncn1)Nc1cccc2ccccc12 | -5.41
27 | CCc1ccc(Nc2n[n+](-c3ccccc3)c(-c3ccc(N(CC)CC)cc3)s2)cc1.[Cl-] | -36
28 | O=C(NC1CCOc2ccccc21)c1ccc(=O)[nH]c1 (stereo not drawn) | 25.1
29 | Cc1ccc(N2C(=O)c3cccc(Oc4ccc(Cl)cc4)c3C2=O)c(C)c1 | -2.97
30 | COc1cccc(C2CCCN2Cc2nc(CCC(C)C)no2)c1 (stereo not drawn) | -9.89
31 | COc1cc(OC)cc(C(=O)N[C@H](C(=O)OCC(=O)NC(C)c2ccccc2)C(C)C)c1 (stereo partly drawn) | -9.56
32 | CN(C)CCNC(=O)c1csc(Nc2cccc3ccccc23)n1 | -55.4
33 | CC(=O)c1cc(C#N)c(NCc2ccccc2)nc1C | 0.123
34 | O=C(COC(=O)C12CC3CC(CC(O)(C3)C1)C2)NCCc1ccc(Cl)cc1 | -10.8
35 | NC1=NC(=O)/C(=C\c2cc([N+](=O)[O-])ccc2Cl)S1 | -6.99
36 | Cc1ccc(CNC(=O)C(C)OC(=O)c2cccs2)cc1 (stereo not drawn) | 17.5
37 | O=C(CCCNC(=O)c1ccc(Cl)cc1)NCc1ccccc1F | -11.6
38 | Cc1ccc(C(=O)NC(=S)NNS(=O)(=O)c2ccc(C)cc2)cc1 | 3.32
39 | CCN1CCN(CCNC(=O)CS(=O)(=O)Cc2nc(-c3ccc(C)cc3)oc2C)CC1 | 2.08
40 | COc1ccc(CCNC(=O)c2cc(=O)n(C)c(=O)n2C)cc1OC | -0.242
41 | O=C(CC(Cc1ccccc1)C(=O)O)Nc1cccc(C(F)(F)F)c1 (stereo not drawn) | 24
42 | CC(C)OP(=O)(c1ccccc1)c1ccccc1 | -3.71
43 | Cc1cc2cc(CNC(=S)Nc3ccc(OC(F)F)cc3)ccc2n1C | 15.3
44 | CCc1cc(-c2nc(N)ncc2-c2csc(C)n2)c(O)cc1OC | -7.42
45 | Cc1cccc(N=C2NC(=O)CS2)c1 | 15.6
46 | COc1cccc(-c2nnc(SCC(=O)Nc3ccc4c(c3)OCCO4)n2Cc2ccco2)c1 | -15.1

Row | SMILES | hERG current change (%, negative = inhibition) at 10uM [%]
47 | COc1ccc(/C=C(\NC(=O)c2ccc(OC)c(OC)c2)C(=O)NCCc2c[nH]c3ccccc23)cc1 | -41.6
48 | CC(=O)Nc1ccc(NC(=O)COC(=O)Cc2cccs2)cc1 | 12.4
49 | OCCCn1c(-c2ccccc2)nc(=S)c2c1CCCC2 | 0.555
50 | CC(Sc1nc2ccccc2c(=O)n1CC1CCCO1)C(=O)N(C)c1ccccc1 (stereo not drawn) | -41.6
51 | O=C1S/C(=C\c2ccc(O)c([N+](=O)[O-])c2)C(=O)N1Cc1cccc([N+](=O)[O-])c1 | 20.1
52 | CCN(CC)C(=O)CSc1n[nH]c(=O)n1CCc1ccccc1 | 14.1
53 | COc1ccc2c(c1)c(C(=O)N/N=C/c1cn(C)c3ccccc13)c(C)n2C | 2.17
54 | Cc1nn(C)c(Oc2ccccc2)c1[N+](=O)[O-] | -3.58
55 | CCN(CC)CCCn1c(C)cc2c(c1=O)C(c1ccc(OC)c(OC)c1OC)C(C#N)=C(N)O2 (stereo not drawn) | 19
56 | COCCCNC(=O)CC(NS(=O)(=O)c1ccc(OC)cc1)c1ccc(OC)cc1 (stereo not drawn) | 22.3
57 | O=C1N(Cc2ccccc2)c2ccc(Cl)cc2C12OCCO2 | 17.4
58 | CC(C)CNS(=O)(=O)c1ccc(OCC(=O)NCC2CCCO2)c(Cl)c1 (stereo not drawn) | -4.3
59 | C=CCn1nnnc1SCC(=O)Nc1cccc(OC)c1 | -10.3
60 | Cc1ccc(CNCC(O)c2ccccc2)s1.Cl (stereo not drawn) | 13
61 | CC(C)(C)C(=O)Nc1cccc(S(=O)(=O)NC2=NCCC2)c1 | 12.5
62 | CC(C)Cc1nnc(NC(=O)CSc2ccccn2)s1 | -7.06
63 | O=[N+]([O-])c1cc(/C=N/n2c(-c3cccnc3)n[nH]c2=S)ccc1Cl | 5.27
64 | Cc1ccc(S(=O)(=O)N(C)Cc2nc(-c3ccccn3)no2)cc1 | 6.95
65 | N#CCOC(=O)c1c2c(nc3ccccc13)CCC2 | -23.1
66 | COc1cc(OC)cc(C(=O)N[C@H](C(=O)OCC(=O)c2ccc(F)cc2)C(C)C)c1 | 2.64
67 | CCOC(=O)C1CCN(C(=O)c2sc3ncnc(N4CCC(C)CC4)c3c2C)CC1 | -73.2
68 | O=C(NCCc1ccccc1)c1nc2ncccn2n1 | -3.81
69 | CCc1cc(=O)oc2c(C)c(OCC(=O)N3CC[C@@]4(O)CCCC[C@H]4C3)ccc12 | -14.6

Row | SMILES | hERG current change (%, negative = inhibition) at 10uM [%]
70 | CC(C)C(=O)Nc1cc2c3c(c1)CCC(=O)N3CCC2 | 9.46
71 | O=C(O)c1ccc(C(=O)c2ccc3c(c2)C(=O)N(CCO)C3=O)cc1 | 19.2
72 | COc1ccc(/C=N/Nc2nccnc2Cl)c(OC)c1 | -0.629
73 | COc1ccc(C2NC(=O)CS2)cc1OC (stereo not drawn) | -3.94
74 | Oc1ccccc1/C=N/NC(=S)NC1CC2CCC1C2 (stereo not drawn) | 17.7
75 | COc1ccc(N2CCN(c3ccc4nnc(CCC(=O)Nc5ccc(C)cc5)n4n3)CC2)cc1 | -70.1
76 | O=C(O)c1c(Cl)nc2ccccn12 | 39.7
77 | Cc1ccc(NS(=O)(=O)c2ccc(OCC(=O)NCc3ccncc3)cc2)cc1 | -19.5
78 | O=C(Nc1cccc(S(=O)(=O)Nc2ccc(Cl)cc2)c1)c1ccc2c(c1)OCCO2 | -12.2
79 | COc1cccc(NC(=O)CCc2nnc3ccc(N4CCN(c5cccc(OC)c5)CC4)nn23)c1 | 13.6
80 | CCOc1ncccc1C(=O)Nc1nc(SC)ns1 | 8.51
81 | c1coc(CNc2nc3sc4c(c3c3ncnn23)CCCC4)c1 | 14.1
82 | Cn1c(Cc2csc(N)n2)nnc1SC/C=C/c1ccccc1 | -10.7
83 | O=C1CSC(c2ccc(Cl)cc2)N1Nc1nc(N2CCOCC2)nc(N2CCOCC2)n1 (stereo not drawn) | -24.8
84 | CC(C)NC(=O)NNC(=O)c1nn(-c2ccc(F)cc2)ccc1=O | -3.54
85 | COc1cc2cc(CN(C(=O)Nc3ccccc3)C3CCCC3)c(=O)[nH]c2cc1OC | -44.2
86 | CCOc1cccc(/C=N/NC(=S)Nc2cc(S(=O)(=O)N3CCOCC3)ccc2N2CCOCC2)c1O | 9.91
87 | CC(=O)Nc1ccc2nc(N)sc2c1 | 15.8
88 | O=C(C1=C(O)C(=O)N(CC2CCCO2)C1c1ccccc1)c1ccco1 (stereo not drawn) | 14.1
89 | Nn1nnc2ccccc21 | -0.689
90 | CCOC(=O)c1c(C)c(C(=O)N2CCN(c3ccccc3)CC2)c(C)n1C | 2.11

Reference: publication PMC4336329 (PLoS ONE, 2015)
